Measured values from article PMC4336329 (PLoS ONE, 2015).
The campaign covered roughly 310,000 compounds. About 14,000 (4.5%) showed an effect of 50% or more. Effects have a minus sign here. The list shows a part of the results.

biological target: human ether-à-go-go-related gene (hERG) potassium channel (human, UniProt Q12809); assay: primary screen, population patch clamp on CHO cells stably expressing hERG
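Also: peak tail current of the secondary pulse compared with the same well before compound.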

Chain of human ether-à-go-go-related gene (hERG) potassium channel (Q12809 whole entry, looked up): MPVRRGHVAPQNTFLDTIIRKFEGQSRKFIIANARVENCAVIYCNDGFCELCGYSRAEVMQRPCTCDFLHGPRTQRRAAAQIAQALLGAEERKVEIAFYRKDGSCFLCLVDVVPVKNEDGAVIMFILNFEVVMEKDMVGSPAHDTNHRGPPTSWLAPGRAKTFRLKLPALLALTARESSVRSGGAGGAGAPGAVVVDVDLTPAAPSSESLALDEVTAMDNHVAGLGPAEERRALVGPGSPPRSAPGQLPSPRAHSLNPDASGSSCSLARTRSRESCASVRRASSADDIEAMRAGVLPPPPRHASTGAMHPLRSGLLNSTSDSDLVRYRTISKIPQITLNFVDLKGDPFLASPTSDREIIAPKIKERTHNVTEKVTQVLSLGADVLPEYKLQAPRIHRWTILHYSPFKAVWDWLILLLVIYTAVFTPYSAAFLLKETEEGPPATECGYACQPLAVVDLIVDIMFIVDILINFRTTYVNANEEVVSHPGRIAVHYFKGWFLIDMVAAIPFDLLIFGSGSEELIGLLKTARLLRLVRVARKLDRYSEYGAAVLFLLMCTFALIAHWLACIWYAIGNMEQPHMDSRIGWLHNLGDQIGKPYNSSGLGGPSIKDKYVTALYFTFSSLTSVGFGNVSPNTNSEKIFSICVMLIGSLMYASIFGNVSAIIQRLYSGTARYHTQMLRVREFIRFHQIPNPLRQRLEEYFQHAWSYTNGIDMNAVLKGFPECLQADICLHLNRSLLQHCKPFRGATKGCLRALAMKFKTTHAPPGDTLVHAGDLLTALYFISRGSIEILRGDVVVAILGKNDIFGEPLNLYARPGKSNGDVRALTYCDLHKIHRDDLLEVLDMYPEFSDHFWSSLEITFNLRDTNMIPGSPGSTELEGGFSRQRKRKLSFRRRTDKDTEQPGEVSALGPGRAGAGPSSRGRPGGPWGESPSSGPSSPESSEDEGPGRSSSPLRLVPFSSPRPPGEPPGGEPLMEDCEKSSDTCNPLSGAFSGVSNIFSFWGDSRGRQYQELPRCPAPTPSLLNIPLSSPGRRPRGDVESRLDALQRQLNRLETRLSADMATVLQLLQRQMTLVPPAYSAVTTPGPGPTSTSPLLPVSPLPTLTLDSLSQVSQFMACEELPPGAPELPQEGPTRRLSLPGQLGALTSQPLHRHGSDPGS

SMILES | hERG current change (%, negative = inhibition) at 10uM
OCCC1CN(Cc2cccn2-c2cccnc2)CCN1C1CCCCC1 (centres unmarked) | -28.1%
O=C(c1ccc(C(F)(F)F)cc1)C1CCCN(Cc2ccc(CO)o2)C1 (centres unmarked) | -24.6%
OCc1cccnc1 | 21.3%
CCOc1ccc(NC(=O)N(C2CCCC2)C2CCN(C(C)=O)CC2)cc1 | -0.735%
Cc1nc2c(ncn2-c2ccccc2)c(=O)n1NC(=O)CN1CCCCC1 | 17.4%
COCCOn1c(SCCOC)nc2ccccc2c1=O | -4.58%
Cc1c(OC(=O)CNC(=O)OC(C)(C)C)ccc2c3c(c(=O)oc12)CCC3 | -0.415%
S=c1[nH]nc(-c2cccs2)n1/N=C/c1cn(-c2ccccc2)nc1-c1ccccc1 | 18%
N#Cc1ccc(N2CCCC2C(=O)O)c([N+](=O)[O-])c1 (centres unmarked) | 13.1%
Cc1c(NC(=O)C2(c3ccccc3)CCCC2)c(=O)n(-c2ccccc2)n1C | -1.94%
Cc1cccc2c1cnn2C(=O)CCC(=O)NCc1ccc(F)cc1 | -0.841%
CCCOc1cccc(OCCSc2nc(C)cc(=O)[nH]2)c1 | 1.17%
O=c1c2ccccc2oc2cc(OCc3ccc(F)cc3)cc(O)c12 | 19.4%
CCN1CCN(C(=S)Nc2ccc3nc(N4CCN(C)CC4)cc(C)c3c2)CC1 | -2.94%
CCc1cc2c(-n3nc(C)cc3C)ncnc2s1 | 1.96%
COc1ccc(CNC(=O)CCCn2nc(C)c([N+](=O)[O-])c2C)cc1OC | -14.8%
Cc1oc(C(C)(C)C)cc1C(=O)Nc1ccc2c(c1)OCO2 | 9.23%
O=C(Nc1ccc(N2CCOCC2)c(Cl)c1)c1ncn[nH]1 | -3.02%
O=C(CN1CCOCC1)Nc1ccccc1C(=O)O | -32.3%
Cc1ccc(OCCC(=O)Nc2c(C)n(C)n(-c3ccccc3)c2=O)cc1 | -3.74%
O=C(C(Cl)Cl)N1CCN(Cc2ccccc2)CC1 | -4.72%
CSc1ccccc1NC(=O)c1csc(C)c1 | 13.8%
CCOC(=O)c1c(-c2ccc(F)cc2)cn2ccccc12 | 14.2%
COC(=O)[C@H](CCSC)NC(=O)NCc1cccs1 | 20.6%

SMILES | hERG current change (%, negative = inhibition) at 10uM
CCCN1C=CC(=C2C(=O)c3ccccc3C2=O)C=C1 | -23.8%
Cc1cc(C)c2c(n1)sc1c(=O)n(Cc3ccc(F)cc3)cnc12 | 11%
CCOc1ccc(N)cc1OC.Cl | 5.32%
COc1ccc(C)cc1NC(=O)c1cc2c(CO)cnc(C)c2oc1=N | 9.84%
CN(Cc1ccccc1)S(=O)(=O)c1ccc(Cl)c(C(=O)NCc2ccc3c(c2)OCO3)c1 | 5.48%
COc1c(Cl)cc(Cl)cc1CNCc1ccccc1.Cl | -27%
CCOC(=O)N1CCC(NC(=O)c2ccc(CNS(=O)(=O)c3ccc(F)cc3)cc2)CC1 | -6.82%
Cc1cc(SC(C)C(=O)O)nc2ccccc12 (centres unmarked) | 21.6%
COc1ccc(Cl)cc1NC(=O)CN(C)C(=O)CN1C(=O)NC2(CCCC2)C1=O | 2.29%
Cc1noc(C)c1C(=O)OC(C)C(=O)Nc1ccc(S(=O)(=O)NC(C)C)cc1 (centres unmarked) | -9.36%
O=C(C1=C[C@@H](c2ccc(Br)cc2)C[C@@H](OCCCCO)O1)N1CCN(Cc2ccccc2)CC1 | -91.7%
Cc1ccc(C(=O)CSC2=NC(N)=C(C#N)C3(CCCCC3)C2C(N)=O)cc1 (centres unmarked) | -14.8%
CC(c1ccccc1)c1nnc(NC(=O)c2ccc3c(c2)OCO3)s1 (centres unmarked) | 7.96%
CCCN[C@H]1CCc2nc(N)sc2C1 | -9.81%
Cc1cc(C(=O)Nc2sc3c(c2C#N)CCC3)no1 | 16.9%
COC(=O)CCC(=O)OC1(C)C(=O)C=C2C=C(c3ccsc3)OC=C2C1=O (centres unmarked) | 1.22%
CCOC(=O)c1c(C)[nH]c(C(=O)N(C)Cc2cccc(OC)c2OC)c1C | 8.92%
O=C(COc1ccccc1)Nc1ccc2c(c1)nc1n2CCSC1 | -18.6%
CCC(NS(=O)(=O)c1ccc(OC)cc1)C(=O)NCCC1=CCCCC1 (centres unmarked) | 8.58%
CCCN1CCN(S(=O)(=O)c2ccc(OC)c(Br)c2)CC1 | -3.75%
O=C(COc1cccnc1[N+](=O)[O-])Nc1cccc2ccccc12 | 6.49%
Cc1nc2c(=O)n(-c3cccc(C(F)(F)F)c3)nc(C)c2s1 | 10%
Cc1ccc(C(=O)N/C(=C/c2ccco2)C(=O)N2CCCCC2)cc1 | -30.3%
